In the supplement of paper PMC3334620:
In all, about 33,000 sequences were measured (“E-score (-0.5 to 0.5)”: median about -0.016, highest 2% from about 0.32 on). This is one part of the list.

Target: T1, Stp1 (UniProt B3LFK1)
T1 sequence: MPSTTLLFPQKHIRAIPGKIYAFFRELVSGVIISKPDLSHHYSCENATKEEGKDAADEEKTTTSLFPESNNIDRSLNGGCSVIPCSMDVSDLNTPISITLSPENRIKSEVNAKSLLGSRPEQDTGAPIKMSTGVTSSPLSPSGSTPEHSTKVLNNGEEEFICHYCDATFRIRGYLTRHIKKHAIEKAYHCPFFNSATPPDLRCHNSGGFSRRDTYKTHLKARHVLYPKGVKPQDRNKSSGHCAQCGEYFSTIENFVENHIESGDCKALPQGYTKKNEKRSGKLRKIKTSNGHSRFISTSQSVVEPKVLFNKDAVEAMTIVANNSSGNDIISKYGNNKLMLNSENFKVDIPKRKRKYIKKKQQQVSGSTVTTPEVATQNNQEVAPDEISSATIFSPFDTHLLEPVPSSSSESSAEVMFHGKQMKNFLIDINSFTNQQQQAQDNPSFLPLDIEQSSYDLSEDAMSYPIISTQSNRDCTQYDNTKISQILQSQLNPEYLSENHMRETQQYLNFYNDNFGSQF
Test: PBM E-score (8-mer binding enrichment) (E-score (-0.5 to 0.5)); higher = stronger / more preferred TF binding; most listed sequences are background and not binding sites
Conditions: protein concentration: 200 nM; construct: GST-full length
Description: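 Universal 'all 10-mer' protein binding microarrays (Agilent AMADID 015681) probed with GST-tagged S. cerevisiae TFs (full-length or DBD) made by in vitro transcription/translation (PURExpress), about 100-200 nM. Bound TF was detected with fluorescent anti-GST. Each ungapped 8-mer (which stands for itself and its reverse complement) is scored by the PBM enrichment score (E-score), a modified Wilcoxon-Mann-Whitney statistic from -0.5 to +0.5, computed with the Universal PBM Analysis Suite. Scale: above 0.35 generally sequence-specific binding.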

Row | Sequence | PBM E-score
1 | ATAACGTG | 0.00931
2 | ACACTGGT | -0.0774
3 | AATCCACC | -0.2
4 | ACTGTACG | 0.0416
5 | CAAGCCAG | -0.161
6 | AGCCTATC | -0.126
7 | CAAATGGA | 0.0629
8 | AGCGGGCA | -0.0624
9 | ATTTTGAG | 0.111
10 | CGGTCACC | -0.0662
11 | ACAGTTTG | -0.0108
12 | CAGTTGCG | -0.0257
13 | AAGCTAAA | -0.116
14 | ATAACCAT | -0.0986
15 | CTGCAAGA | -0.119
16 | ACCCCATG | -0.104
17 | GACAGAAC | 0.0155
18 | GGGAGTCA | -0.324
19 | ATTATCGG | 0.0172
20 | ACCCCGGG | -0.171
21 | CGTGCTCC | 0.0298
22 | GCTCCATA | 0.00126
23 | CTACCGGC | -0.112
24 | ACCTTGCG | 0.13

Row | Sequence | PBM E-score
25 | AAGCTACT | -0.0664
26 | AGAGTCCA | -0.134
27 | ATTCGGTG | -0.0133
28 | GACTGACA | -0.113
29 | GACTCTCC | -0.149
30 | AAATCCGT | 0.229
31 | CAAAGAAA | 0.048
32 | TTCCGGAA | 0.0276
33 | CTGGATGC | -0.161
34 | AACTCCTT | -0.0422
35 | GAGTCATC | -0.206
36 | ACCTACCG | -0.239
37 | CGCTGAAG | -0.108
38 | CCGTTGCA | 0.19
39 | GTTATGAA | 0.152
40 | CAATTGAA | -0.0308
41 | ACGTGCAG | 0.105
42 | ATGAAGGA | 0.145
43 | CTCTTTGA | -0.116
44 | ACCTCGCG | 0.00655
45 | ATCAATTG | 0.217
46 | GCCACCCA | -0.0763
47 | ACTTACCC | -0.132
48 | ACTTCGTA | -0.161

Row | Sequence | PBM E-score
49 | AGCGTCAG | -0.101
50 | AAGAATCG | 0.136
51 | GACAACGC | 0.08
52 | CCTGATGA | 0.0673
53 | ACTACCTC | -0.21
54 | CAAACAAC | 0.137
55 | ATAAACCC | 0.0437
56 | ACTTCTGA | 0.0118
57 | GTAAGCTA | 0.0598
58 | GGGGATGA | -0.308
59 | ACGACCTG | -0.222
60 | CCCACACA | -0.0354
61 | TAAGCCGA | 0.0486
62 | AAGTGAGC | -0.2
63 | TGTGTCAA | 0.00654
64 | CAGGACGC | -0.118
65 | CAAATATA | 0.0205
66 | CTTCTCCA | -0.3
67 | AGTTCCCA | 0.0319
68 | AGGGTCCG | -0.212
69 | ACAGGTGA | -0.0536
70 | CATATCGG | -0.136
71 | CGCGATGC | 0.012
72 | GACGATGA | 0.129

Row | Sequence | PBM E-score
73 | CCGCGTTC | 0.303
74 | GTCCTGGA | -0.399
75 | ACCTGTAT | -0.0106
76 | AAAATCGG | 0.00058
77 | GCCCGCGA | -0.125
78 | AGCGGTAG | -0.193
79 | CAGGGGGC | -0.0376
80 | AACTCACC | -0.19
81 | ACAATCTC | -0.0714
82 | ATAGAAGC | 0.196
83 | CGTAGAAC | -0.0229
84 | ACTGGCCG | -0.0611
85 | AGGATGTA | -0.0745
86 | GAAAAATC | 0.0179
87 | CTGTCTAC | -0.0878
88 | GACGTTTA | -0.116
89 | GCAACGGA | 0.228
90 | GTTTGAGA | -0.0325
91 | CAGTACCG | 0.101
92 | TAAGCAAA | 0.105
93 | AATACCCA | -0.123
94 | AAACAAGG | 0.0129
